The labels stand for the following.
B1: PhoQ; a variant is named by its letters at X, in order, P23837 (parent)
chain: MKKLLRLFFPLSLRVRFLLATAAVVLVLSLAYGMVALIGYSVSFDKTTFRLLRGESNLFYTLAKWENNKLHVELPENIDKQSPTMTLIYDENGQLLWAQRDVPWLMKMIQPDWLKSNGFHEIEADVNDTSLLLSGDHSIQQQLQEVREDDDDAEMTHSVAVNVYPATSRMPKLTIVVVDTIPVELKSSYMVWSWFIYVLSANLLLVIPLLWVAAWWSLRPIEALAKEVRELEEHNRELLNPATTRELTSLVRNLNRLLKSERERYDKYRTTLTDLTHSLKTPLXXLQXXLRSLRSEKMSVSDAEPVMLEQISRISQQIGYYLHRASMRGGTLLSRELHPVAPLLDNLTSALNKVYQRKGVNISLDISPEISFVGEQNDFVEVMGNVLDNACKYCLEFVEISARQTDEHLYIVVEDDGPGIPLSKREVIFDRGQRVDTLRPGQGVGLAVAREITEQYEGKIVAGESMLGGARMEVIFGRQHSAPKDE

Some of the results follow.

The variants in this assay derive from B1. Description: enrichment ratio after two sorts for PhoP signalling (ratio (wild type AVST 3.29)); higher = more functional. Particulars: with PhoP (E. coli).
In the case of YWIQ, the enrichment ratio was not above 0.25.
The same measure for VKQM: not above 0.25.
The same measure for ECAN: not above 0.25.
To ANMG belongs not above 0.25.
In the case of FQAT, the enrichment ratio was 1.07.
Consider QKLY, for which the enrichment ratio is not above 0.25.
To SGNA belongs not above 0.25.
The same measure for DQTV: not above 0.25; for KYTQ: not above 0.25; for ELHQ: not above 0.25.
The same measure for FQHW: not above 0.25; for HGYI: not above 0.25; for FHCA: not above 0.25.
For IRIV, the enrichment ratio is not above 0.25.
The same measure for YVHK: not above 0.25.
The same measure for FYKC: not above 0.25; for RQVR: not above 0.25; for ESNA: not above 0.25.
As for IYAE, the enrichment ratio was not above 0.25.
To QPVL belongs not above 0.25; to IAWE, not above 0.25; to KKKF, not above 0.25.
EYIG: the enrichment ratio is not above 0.25.
To TFWY belongs not above 0.25; to PCPH, not above 0.25.
The same measure for SYND: not above 0.25; for ACAP: 10.2.
To FQLP belongs not above 0.25.
Take NGMV: the enrichment ratio amounted to 14.
The same measure for DAML: not above 0.25; for INFV: not above 0.25.
The same measure for HWDR: not above 0.25; for SHQQ: not above 0.25.
To TFFV belongs not above 0.25; to ESSL, not above 0.25.
In the case of DLKK, the enrichment ratio is not above 0.25.
To ELYG belongs not above 0.25.
To AFYQ belongs not above 0.25; to FTIV, not above 0.25.
The same measure for TNAT: 11; for ININ: not above 0.25.
With WPWT, the enrichment ratio was not above 0.25.
To WNDY belongs not above 0.25; to ADCR, not above 0.25.
To YNLW belongs not above 0.25; to LTDA, not above 0.25.
To HFPH belongs not above 0.25; to RVSY, not above 0.25; to SWFC, not above 0.25.
Consider QRVG, for which the enrichment ratio was not above 0.25.
To NRNM belongs not above 0.25; to NHSF, not above 0.25; to VSPL, not above 0.25.
The same measure for WNFQ: not above 0.25; for ECQN: not above 0.25.
To VVYH belongs not above 0.25.
In the case of FGIY, the enrichment ratio is not above 0.25.
Consider HQTE, for which the enrichment ratio is not above 0.25.
The same measure for IGKS: not above 0.25.
To EFEH belongs not above 0.25; to VWLW, not above 0.25; to MFFI, not above 0.25.
The same measure for MPAF: not above 0.25; for WPVE: not above 0.25.
For the variant SAFA, the enrichment ratio is not above 0.25.
To EYKP belongs not above 0.25.
Regarding PMYP, the enrichment ratio was not above 0.25.
The same measure for INPH: not above 0.25; for TTPH: not above 0.25.
Regarding PNII, the enrichment ratio is not above 0.25.
Take SPAK: the enrichment ratio was not above 0.25.
To MTVP belongs not above 0.25.
Regarding PLFH, the enrichment ratio was not above 0.25.
As to TYHG, the enrichment ratio was not above 0.25.
The same measure for QYFA: not above 0.25; for GAHS: not above 0.25.
Regarding TFTV, the enrichment ratio came to 7.62.
In the case of NYEL, the enrichment ratio was not above 0.25.
The same measure for MAKS: not above 0.25; for TSRR: not above 0.25.
The same measure for RTDW: not above 0.25.
To PHIP belongs not above 0.25.
Consider TLEI, for which the enrichment ratio is 3.75.
For the variant RDSW, the enrichment ratio is not above 0.25.
Consider IFSE, for which the enrichment ratio is not above 0.25.
The same measure for ETRD: not above 0.25; for EPPT: not above 0.25.
To KPVD belongs not above 0.25; to PIYP, not above 0.25.
To GGTH belongs not above 0.25.
Consider MACQ, for which the enrichment ratio worked out at 5.74.
The same measure for NARG: not above 0.25; for VYHE: not above 0.25; for VSGW: not above 0.25.
To LFMA belongs not above 0.25; to TMYH, not above 0.25; to VSIQ, not above 0.25.
To EFSN belongs not above 0.25; to VQYQ, not above 0.25; to PAQA, not above 0.25.
FMFT: the enrichment ratio is not above 0.25.
The same measure for HFVW: not above 0.25; for PGCK: not above 0.25; for ICMM: 7.08.
With FMVT, the enrichment ratio was not above 0.25.
The same measure for EQIA: not above 0.25.
Take FTFM: the enrichment ratio was not above 0.25.
In the case of GICN, the enrichment ratio amounted to 13.8.
On to IGYP, for which the enrichment ratio was not above 0.25.
The same measure for HNWK: not above 0.25.
To DEVL belongs not above 0.25; to LHLS, not above 0.25.
The same measure for VYFG: not above 0.25; for SGKH: not above 0.25.
On to FMGT, for which the enrichment ratio was not above 0.25.
For the variant WVYW, the enrichment ratio was not above 0.25.
The same measure for LTSW: not above 0.25; for VQCN: not above 0.25.
As to GWMK, the enrichment ratio was not above 0.25.
The same measure for IQCS: not above 0.25; for TSFY: 6.35; for RAPK: not above 0.25.
As to DQCS, the enrichment ratio is not above 0.25.
Consider KFQP, for which the enrichment ratio is not above 0.25.
The same measure for HFFN: not above 0.25.
To EYNP belongs not above 0.25; to GDNV, not above 0.25.
The same measure for EQCC: not above 0.25; for WFNW: not above 0.25; for FPNT: not above 0.25.
Take MPPN: the enrichment ratio is not above 0.25.
As for HYTY, the enrichment ratio was not above 0.25.
Regarding AEWS, the enrichment ratio turned out to be 8.72.
The same measure for ICAY: not above 0.25.
To DSDD belongs not above 0.25; to ISGS, not above 0.25; to RPTM, not above 0.25.
The same measure for HHRA: not above 0.25; for SKCF: 13.8.
In the case of NPMA, the enrichment ratio is not above 0.25.
To MPNK belongs not above 0.25.
As for EYLL, the enrichment ratio is not above 0.25.
The same measure for FMSQ: not above 0.25.
With SDIW, the enrichment ratio was not above 0.25.
To PKDS belongs not above 0.25; to GSAH, not above 0.25.
Take DQTS: the enrichment ratio was not above 0.25.
For TPLL, the enrichment ratio was not above 0.25.
The same measure for AGYP: not above 0.25.
To KCKM belongs not above 0.25; to AWFS, not above 0.25; to TKDY, not above 0.25.
To DSEI belongs not above 0.25; to YNKN, not above 0.25.
For QSRA, the enrichment ratio is not above 0.25.
The same measure for NLVM: not above 0.25; for AQRH: not above 0.25.
The same measure for HTTW: not above 0.25; for LDMC: not above 0.25.
Turning to MLCH, the enrichment ratio was not above 0.25.
To NVQR belongs not above 0.25; to MNAN, 6.51.
As to AAST, the enrichment ratio turned out to be 2.87.
The same measure for KAFN: not above 0.25.
The same measure for GLCW: 2.02.
For the variant TKWM, the enrichment ratio was 8.17.
To TCAD belongs not above 0.25.
The same measure for WIVR: not above 0.25; for QFGS: not above 0.25; for WYQW: not above 0.25.
The same measure for IMQR: not above 0.25.
As for EQHV, the enrichment ratio was not above 0.25.
Take TQNI: the enrichment ratio was not above 0.25.
To KMQE belongs not above 0.25; to NWQS, not above 0.25.
To NLRI belongs not above 0.25; to GNDH, not above 0.25.
The same measure for YERK: not above 0.25; for AIRW: not above 0.25.
As to NKHL, the enrichment ratio was not above 0.25.
Regarding MDSI, the enrichment ratio was found to be 1.39.
The same measure for MCVT: not above 0.25; for WKDH: not above 0.25.
The same measure for AATL: 7.86; for FEPF: not above 0.25; for STCG: 9.46.
The same measure for HGML: 21.6.
Regarding GPFT, the enrichment ratio is not above 0.25.
The same measure for HSQI: 1.32.
To DEGS belongs not above 0.25; to QIWY, not above 0.25; to NWSF, not above 0.25.
The same measure for ELEL: not above 0.25; for LNQQ: not above 0.25.
For the variant AAPF, the enrichment ratio was not above 0.25.
To FIIA belongs not above 0.25.
As to NWLC, the enrichment ratio was not above 0.25.
To VNPW belongs 1.58; to NRQH, not above 0.25.
To WLPK belongs not above 0.25; to FLPC, not above 0.25; to EVCI, not above 0.25.
The same measure for PHIW: not above 0.25.
On to VHQQ, for which the enrichment ratio is not above 0.25.
The same measure for LEPR: not above 0.25; for HELD: not above 0.25; for PFDE: not above 0.25.
Regarding SQSW, the enrichment ratio is not above 0.25.
The same measure for IHWI: not above 0.25; for HCMF: not above 0.25.
To ITQL belongs not above 0.25.
To GTHR belongs not above 0.25.
Regarding RCQR, the enrichment ratio was not above 0.25.
As for RRWA, the enrichment ratio was not above 0.25.
To VAVG belongs not above 0.25; to WAYK, not above 0.25.
The same measure for TTSH: 8.44; for HRVG: not above 0.25.
To GQTR belongs not above 0.25; to DERH, not above 0.25.
On to WDHS, for which the enrichment ratio is not above 0.25.
The same measure for IHFL: not above 0.25.
The same measure for EPDA: not above 0.25; for MIGH: 18.2.
To NNDQ belongs not above 0.25; to YYHA, not above 0.25; to FGEI, not above 0.25.
For WKRD, the enrichment ratio is not above 0.25.
The same measure for LAKS: not above 0.25; for ITDE: not above 0.25; for NNAS: not above 0.25.
In the case of MRCF, the enrichment ratio was not above 0.25.
Take ESNW: the enrichment ratio is not above 0.25.
To IFMD belongs not above 0.25; to LHHV, not above 0.25; to SVAE, 13.4.
To SFKN belongs not above 0.25; to LEHR, not above 0.25; to RKAC, not above 0.25.
The same measure for IVFG: not above 0.25; for TGMH: 14.5; for PFAK: not above 0.25.
In the case of LGVL, the enrichment ratio is not above 0.25.
The same measure for HIIH: not above 0.25; for GYWM: not above 0.25.
In the case of HYGW, the enrichment ratio was not above 0.25.
To ESGH belongs not above 0.25; to HQEG, not above 0.25; to LYDW, not above 0.25.
Take EKNY: the enrichment ratio is not above 0.25.
To YMIL belongs not above 0.25.
The same measure for NEVR: not above 0.25; for RYYE: not above 0.25; for EYLS: not above 0.25.
For the variant KETW, the enrichment ratio was not above 0.25.
To IMWQ belongs not above 0.25; to TKAR, not above 0.25.
In the case of HNCR, the enrichment ratio was not above 0.25.
The same measure for SKAP: 0.382; for MRQY: not above 0.25.
As to YNAS, the enrichment ratio was not above 0.25.
The same measure for TRGP: not above 0.25.
To WPMG belongs not above 0.25; to NLSA, not above 0.25.
To LWTE belongs not above 0.25; to VHRS, not above 0.25.
MSGH: the enrichment ratio worked out at 0.805.
To PQPD belongs not above 0.25.
As for ICTE, the enrichment ratio was not above 0.25.
For the variant YVWK, the enrichment ratio is not above 0.25.
The same measure for MESD: not above 0.25.
The same measure for GDAH: not above 0.25; for VPHQ: not above 0.25.
To WCER belongs not above 0.25; to EDRR, not above 0.25.
TWCF: the enrichment ratio was not above 0.25.
To NDIS belongs not above 0.25; to DFWY, not above 0.25.
The same measure for QRGA: not above 0.25.
With WHEK, the enrichment ratio was not above 0.25.
To RSEC belongs not above 0.25.
Consider ESNK, for which the enrichment ratio is not above 0.25.
To SAGT belongs not above 0.25; to YQMR, not above 0.25; to ESVV, not above 0.25.
Turning to SKRH, the enrichment ratio was not above 0.25.
Take KHPH: the enrichment ratio was not above 0.25.
PYSS: the enrichment ratio is not above 0.25.
To MQHY belongs 12.6; to VTSM, 6.31; to VKTW, not above 0.25.
As for FQNM, the enrichment ratio is not above 0.25.
The same measure for DEIR: not above 0.25; for RPFG: not above 0.25; for QNFC: not above 0.25.
To KNVL belongs not above 0.25.
To AQHI belongs not above 0.25; to LWHR, not above 0.25; to VPPG, not above 0.25.
For the variant NAGM, the enrichment ratio is not above 0.25.
The same measure for SATM: 7.5; for RHNS: not above 0.25.
To KPRI belongs not above 0.25; to GCRN, not above 0.25; to YTII, not above 0.25.
To QLSF belongs not above 0.25.

Values taken from a collection of fitness landscapes (doi:10.1126/science.1257360).
